# Hit rate of the full screen: of about 150,000 compounds, about 540 (0.36%) showed an effect of 50% or more. The list shows a part of the results.
# System: Plasmodium falciparum
# Assay: Primary screen in NF54 nanoGlo assay, in single point, at 2uM, 72h; a lower Z score goes with more inhibition
# Assay type: functional, Erythrocyte
# Conditions: timepoint 72 hour
SMILES,% Inhibition [%],Z score
Cc1cc(C(=O)Cn2cnc(C#N)n2)c(C)n1C(C)C,2,-0.28
CCN(CC)S(=O)(=O)NC(=O)CCc1cc(Cl)cs1,2,-0.25
COC(=O)[C@H]1CC12CCN(S(=O)(=O)Cc1cccc(F)c1)CC2,-17,1.95
CC[C@H](C)C(=O)NCCc1ccsc1,-13,2.22
Cn1cc(C[C@H](O)C(=O)NC2CCC3(CCCCC3)CC2)cn1,6,-0.73
C[n+]1c(CCc2ccccc2)sc2ccccc21,-7,1.33
CCNc1ncc(C(=O)N2CCN([C@H]3CCCC[C@@H]3O)CC2)cn1,0,-0.02
CCc1ncc(CN[C@@H]2CCC[C@H]2OC(F)F)cn1,3,-0.38
O=C(c1c[nH]c(C(=O)N2CCCC2)c1)N1CCN(c2ncccn2)CC1,-8,1.56
CCCN(CCC)C(=O)c1cc(OCC)c(OCC)c(OCC)c1,-7,1.36
O=C(Cc1csc(-c2ncccn2)n1)OC[C@H]1CCCCO1,-9,0.91
Cn1cc(C(NC(=O)c2c[nH]c3c(F)cccc3c2=O)[C@H]2C[C@@H](O)C2)cn1 (some centres not stated),-4,0.57
O=C(CN1CCCCCC1)Nc1nc(-c2ccccc2)cs1,10,-1.32
Cc1cc2c(N)c3ccc(N(C)C)cc3nc2cn1,12,-2
Cc1ccc(C)c(NC(=O)N2C[C@H](NS(=O)(=O)N(C)C)[C@@H](C(C)C)C2)c1,-10,1.95
Cc1cccc(C(=O)N2c3ccccc3C[C@@H]2C)n1,-10,0.86
CCC[C@H](C)NCc1ccccc1OC,-1,0.07
CC1CCCCC1N(C)C(=O)Cn1cnc(C#N)c1C#N (configuration not stated),-7,0.71
CCc1cc(NC(=O)[C@H]2CC[C@@H](C(=O)N3CCCC3)O2)ccc1C,7,-1.09
COc1cccc(-c2nc(NCc3ccccc3)nc3nn(-c4ccc(Cl)cc4)c(N)c23)c1,14,-1.76
C#CCCCCC(=O)N(C)c1ncccc1OC,-7,1.16
C[C@H](Nc1ccc2c(c1)OC1(CCCCC1)O2)C(=O)N1CCNC1=O,-4,0.37

SMILES,% Inhibition [%],Z score
c1csc(N2CCN([C@H]3CCOC4(CCOCC4)C3)CC2)n1,-3,0.53
Cc1cc(=O)n(CCN(C)Cc2ccoc2)c(=O)[nH]1,15,-3.1
NC(=O)c1ccc(C(=O)NCC2(c3ccccc3)CC2)cn1,-8,0.75
CC1CN(c2nnc(C(F)(F)F)s2)CC(C2CC2)O1 (configuration not stated),-8,0.83
CCC(C)(C)N(C)Cc1nc2ncc(Br)cn2n1,-6,1.24
O=C(O)c1ccccc1-n1ncc2c1C(=Cc1ccccc1)CCC2,-11,1.75
CC(C)(C)[C@H]1CCCN(C(=O)CCc2cn[nH]c2)CC1,-15,2.2
FC(F)(F)c1cccc(C2(c3nc(-c4ccccn4)no3)CCOCC2)c1,0,0.05
Cc1oncc1C(=O)NCCCn1cccn1,1,-0.16
CN(Cc1cccc(OC(F)F)c1)Cc1cc(=O)n2nccc2[nH]1,-14,2.28
Cn1nc(CNC(=O)CO)c2c(Cl)cccc21,-5,0.79
Nc1ccc(C(=O)NC(Cc2ccccn2)[C@H]2C[C@H](O)C2)cn1 (some centres not stated),-7,0.79
COc1cc(OC)cc(C(=O)N2CCc3cc(-c4ccno4)ccc32)c1,-1,0.1
O=C(Nc1ccc(NC2CCCCC2)cc1)c1cnccn1,1,-0.11
Cc1c(C(=O)N2CCN(C3CCCCC3)CC2)cccc1-n1nnc2cccnc21,-6,1.08
CC(C)C[C@H]1NC(=O)[C@H]2CN(S(=O)(=O)c3ccccc3F)CCN2C1=O,-1,0.27
CCn1nc(CO)c2c1CCN(Cc1ccccc1C#N)C2,-4,0.67
CC1=C(c2ccc(C)cc2)S(=O)(=O)N=C1N1CCC(NC(=O)c2ccncc2)CC1,-5,0.99
CC(C(=O)N1CCc2ccccc21)N(C)CC1COc2ccccc2O1 (configuration not stated),16,-1.85
CCn1nc(C)c(Nc2ncc(Br)cn2)c1C,-3,0.46
O=C(C#Cc1ccccc1)N1CCC[C@@](CO)(CCOc2ccccc2)C1,-5,0.59
Cc1cc(C(=O)Nc2ccncc2)c2c(-c3ccccc3F)noc2n1,8,-0.93

SMILES,% Inhibition [%],Z score
CN1CCC(N(CCc2ccccc2)S(=O)(=O)N2CCCCCC2)CC1,-12,1.66
COc1ccccc1OC1(C(=O)O)CCN(c2nccc(N)n2)CC1,9,-1.17
CC1C2C(c3ccccc3)N(C)C(=O)N(C)C2N(C)C(=O)N1C (configuration not stated),-2,0.45
CS(=O)(=O)[C@H]1CCN(c2ccc(C(=O)Nc3ccccc3)nn2)C1,1,-0.29
CNS(=O)(=O)[C@H]1CCN(C(=O)NCCc2ccc(OC(F)F)cc2)C1,-12,1.11
CCc1nnc(NC2CCN(Cc3ccccc3)CC2)c(C#N)c1CC,-4,0.77
CCOC(=O)Cn1cnc2c1c(=O)n(C[C@H]1CCCO1)c(=O)n2-c1ccccc1,-5,0.47
CCCN1CCN(S(=O)(=O)c2cc(-c3nc(C)cs3)n(CC(=O)N3CCCCC3)c2)CC1,-14,1.68
Cc1nccc(NC(=O)N2Cc3ccccc3O[C@@H](C)C2)n1,3,-0.37
Cc1noc(C)c1CN[C@@H](C)CCc1c[nH]c2ccccc12,-19,2.33
Cc1cnc(CN[C@@H](Cc2ccccc2)C2CCCCC2)cn1,-3,0.55
CCc1noc2nc(C)n(CC(=O)NCc3ccc(OC)cc3)c(=O)c12,-5,0.73
CC1C(c2ccccc2)CCN1CC(=O)N1CCOC2CCCCC21 (configuration not stated),4,-0.54
Cc1cccc(-c2nc3[nH]c(CNc4cc(Cl)ccc4C)cc(=O)n3n2)c1,16,-1.83
O=C(c1cccnc1)N1C[C@@H]2OCC(=O)N(Cc3ccncc3)[C@@H]2C1,15,-1.74
O=C(CN1Cc2ccccc2O[C@H](c2ccccc2F)C1)NCCCN1CCOCC1,5,-0.63
COc1ccc(CN(C)CC(=O)Nc2nc(-c3ccc(OC)cc3OC)cs2)c(OC)c1,2,-0.35
O=C(Cn1ccnc1)NCc1cccs1,-7,0.93
O=C(c1cn2c(n1)CC[C@H](c1cccc(C(F)(F)F)c1)C2)N1CCN(c2ccccc2F)CC1,-9,1.38
Cc1ocnc1C(=O)Nc1ccc(Oc2nnn[nH]2)cc1,-28,2.47
Cc1cc(Cl)ccc1CN1CCC(OC2CCOCC2)CC1,0,-0.04
Cc1cnc(C(=O)NC2CC3CC3C2)o1 (configuration not stated),-5,0.57

SMILES,% Inhibition [%],Z score
COC1(c2ccccc2)CCN(c2cc(C3CC3)ncn2)CC1,3,-0.46
CC(C)(C)C(=O)NCc1cccc(C(F)(F)F)c1,-15,2.2
COc1nccnc1NC1CCN(C(=O)NCc2ccco2)CC1,-11,1.39
COCC1(C(=O)N2CCC[C@H]2c2nc(-c3ccccc3)no2)CCC1,6,-0.78
CCn1cc(C2=CCN(S(=O)(=O)c3cccc(F)c3)CC2)c2cccnc21,-17,2.28
OC[C@@H](Cc1ccccc1)Nc1nc(NC2CC2)nc2c1CCNCC2,2,-0.44
CC1(C)C[C@@H](c2nccn2C2CCN(S(C)(=O)=O)CC2)CCO1,-19,2.56
COCCn1c([C@H](C)NC(=O)Cc2c(C)n[nH]c2-c2ccc(Cl)cc2)nc2ccccc21,-7,0.94
c1cc(CNc2nnc(CC3CC3)o2)c2ccncc2c1,-15,1.6
Cc1nccn1CC(=O)N[C@H](c1cnn(C)c1)C(C)(C)C,-7,1.22
Cn1c(CS(=O)(=O)Cc2nc(C(C)(C)C)cs2)nnc1C1CCC1,-17,2.13
CN(Cc1ccco1)C(=O)Cn1cnc2ccc(Cl)cc2c1=O,-9,1.36
COC(=O)c1ccccc1NCC(=O)NC(=O)NC1CCCC1,-3,0.42
Cc1ccc2c(CCNC(=O)N3CCC[C@H]3CO)cn(C)c2c1,5,-0.84
Cc1sc2ncnc(N3CC[S+]([O-])CC3)c2c1C,-5,0.75
Cc1cc(CN2C(=O)c3ccccc3C2=O)cc(C(=O)N2CCc3ccccc3C2)c1O,9,-1.17
CCn1c(C(=O)NCc2cccc(OC)c2)c(N2CCCC2=O)c2cc(OC)ccc21,-6,0.89
C[C@@H](NCc1ncc(Cl)s1)c1ccc(Br)cc1,7,-1.38
Cc1ccc(C)c(C(=O)c2sc(Nc3ccc4c(c3)OCCO4)nc2N)c1,1,-0.21
C[C@@H](CN(C)c1ccc(Cl)cc1C#N)C(=O)O,-20,2.53

# Source: ChEMBL document CHEMBL4888484, “Replenishing the malaria drug discovery pipeline: Screening and hit evaluation of the MMV Hit Generation Library 1 (HGL1) against asexual blood stage Plasmodium falciparum ,using a nano luciferase reporter read-out” (2022)
